In patent publication US20250066451A1 (SWEDISH ORPHAN BIOVITRUM AB PUBL, published 2025):
Residue numbers refer to the chain shown, from its start.

T1: human IL-1R-I (human, UniProt P14778 18-332, limits assumed)
T1 construct: bought recombinant protein; also called hIL-1R-I; hIL-1RI
T1 sequence (looked up): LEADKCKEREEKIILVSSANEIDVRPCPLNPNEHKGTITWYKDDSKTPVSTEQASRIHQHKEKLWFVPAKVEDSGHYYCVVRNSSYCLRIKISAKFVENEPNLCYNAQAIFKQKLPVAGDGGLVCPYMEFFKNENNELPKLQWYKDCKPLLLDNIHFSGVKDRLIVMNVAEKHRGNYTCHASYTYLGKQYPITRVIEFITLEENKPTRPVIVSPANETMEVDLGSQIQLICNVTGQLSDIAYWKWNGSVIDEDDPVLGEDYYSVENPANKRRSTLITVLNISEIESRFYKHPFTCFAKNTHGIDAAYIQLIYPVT

B1: Z18814 (Z-ABD) (designed binder)
chain: AQHDEALEVDAKYAKEVEEIQMEIFALPNLTRRQYTAFIRKLLDDPSQSSELLSEAKKLNDSQAPKVDYVLAEAKVLANRELDKYGVSDYYKNLINNAKTVEGVKALIDEILAALPYVPG
B2: Z18783 (Z-ABD) (designed binder)
chain: B1 chain with V17T, E19V, A26R
B3: Z18826 (Z-ABD) (designed binder)
chain: B1 chain with V17I, A26G
B4: Z18827 (Z-ABD) (designed binder)
chain: B1 chain with V17T, E19K, I20V, A26R
B5: Z18784 (Z-ABD) (designed binder)
chain: B1 chain with V17T, E19A, R33K
B6: Z18820 (Z-ABD) (designed binder)
chain: B1 chain with V17L, E19A, A26R, R33K
B7: Z16191 (Z-ABD) (designed binder)
chain: B1 chain with V17I, E19A, I20A, A26Y, R33K, L43F
B8: Z18770 (Z-ABD) (designed binder)
chain: B1 chain with V17T, E19R, I20V, A26S
B9: Z18763 (Z-ABD) (designed binder)
chain: B1 chain with V17I, E19A, I20V, A26G, R33K
B10: Z16062 (Z-ABD) (designed binder)
chain: B1 chain with V17I, I20A, A26Y, R33K, L43F
B11: Z18824 (Z-ABD) (designed binder)
chain: B1 chain with V17T, E19A, I20V, A26H
B12: Z18794 (Z-ABD) (designed binder)
chain: B1 chain with E19A, I20V, A26S
B13: Z18760 (Z-ABD) (designed binder)
chain: B1 chain with V17T, E19A, I20V
B14: Z18817 (Z-ABD) (designed binder)
chain: B1 chain with A26R, L43F
B15: Z18777 (Z-ABD) (designed binder)
chain: B1 chain with V17I, E19Q, I20V, A26R
B16: Z18821 (Z-ABD) (designed binder)
chain: B1 chain with V17T, I20V, A26K
B17: Z18805 (Z-ABD) (designed binder)
chain: B1 chain with V17I, E19A, I20V, R33K, L43F
B18: Z18790 (Z-ABD) (designed binder)
chain: B1 chain with E19A, I20V
B19: Z18808 (Z-ABD) (designed binder)
chain: B1 chain with I20V, A26R, R33K
B20: Z18758 (Z-ABD) (designed binder)
chain: B1 chain with V17T, E19V, I20V, A26G, L43F
B21: Z18798 (Z-ABD) (designed binder)
chain: B1 chain with V17T, A26Q
B22: Z18774 (Z-ABD) (designed binder)
chain: B1 chain with V17I, E19V, A26R, R33K
B23: Z18786 (Z-ABD) (designed binder)
chain: B1 chain with V17L, I20V, A26R, R33K, L43F
B24: Z18766 (Z-ABD) (designed binder)
chain: B1 chain with V17T, E19Q, I20V, A26H
B25: Z15975 (Z-ABD) (designed binder)
chain: B1 chain with E19T, I20A, A26V, R33K
B26: Z18762 (Z-ABD) (designed binder)
chain: B1 chain with V17L, E19A, A26R
B27: Z18800 (Z-ABD) (designed binder)
chain: B1 chain with V17I, A26R
B28: Z15840 (Z-ABD) (designed binder)
chain: B1 chain with E19V, I20A, R33K
B29: Z18819 (Z-ABD) (designed binder)
chain: B1 chain with V17T, I20V, A26G
B30: Z18803 (Z-ABD) (designed binder)
chain: B1 chain with V17I, E19Q, A26R
B31: Z18828 (Z-ABD) (designed binder)
chain: B1 chain with A26Y
B32: Z18776 (Z-ABD) (designed binder)
chain: B1 chain with E19A, A26H
B33: Z16208 (Z-ABD) (designed binder)
chain: B1 chain with E19K, I20A, A26D, R33K, L43F
B34: Z16440 (Z-ABD) (designed binder)
chain: B1 chain with E19S, I20A, Q21Y, A26H, R33K
B35: Z18804 (Z-ABD) (designed binder)
chain: B1 chain with V17L, A26R
B36: Z16183 (Z-ABD) (designed binder)
chain: B1 chain with E19D, I20A, A26Y, R33K
B37: Z15945 (Z-ABD) (designed binder)
chain: B1 chain with I20A, A26S, R33K
B38: Z18810 (Z-ABD) (designed binder)
chain: B1 chain with V17T, I20V, A26G, R33K, L43F
B39: Z16397 (Z-ABD) (designed binder)
chain: B1 chain with E19A, I20A, Q21Y, M22F, F25Y, A26E, R33K
B40: Z18757 (Z-ABD) (designed binder)
chain: B1 chain with V17I, A26R, R33K, L43F
B41: Z18756 (Z-ABD) (designed binder)
chain: B1 chain with V17I, I20V
B42: Z18754 (Z-ABD) (designed binder)
chain: B1 chain with A26R
B43: Z18782 (Z-ABD) (designed binder)
chain: B1 chain with I20V, A26E
B44: Z18825 (Z-ABD) (designed binder)
chain: B1 chain with V17T, E19K, I20V, A26G, R33K, L43F
B45: Z18769 (Z-ABD) (designed binder)
chain: B1 chain with I20V, A26H
B46: Z18771 (Z-ABD) (designed binder)
chain: B1 chain with A26R, R33K
B47: Z15876 (Z-ABD) (designed binder)
chain: B1 chain with V17I, E19A, I20A, A26G, R33K, L43F
B48: Z18807 (Z-ABD) (designed binder)
chain: B1 chain with V17L, E19I, I20V, A26S
B49: Z18811 (Z-ABD) (designed binder)
chain: B1 chain with V17L, E19T, I20V, A26H, R33K
B50: Z18806 (Z-ABD) (designed binder)
chain: B1 chain with V17T, A26R, R33K
B51: Z16606 (Z-ABD) (designed binder)
chain: B1 chain with V17I, E19K, I20A, A26D, R33K, L43F
B52: Z18813 (Z-ABD) (designed binder)
chain: B1 chain with R33K, L43F
B53: Z18799 (Z-ABD) (designed binder)
chain: B1 chain with E19A, A26H, R33K, L43F
B54: Z18785 (Z-ABD) (designed binder)
chain: B1 chain with V17L, A26H, R33K
B55: Z16737 (Z-ABD) (designed binder)
chain: B1 chain with I20A, Q21Y, A26Q, R33K
B56: Z15932 (Z-ABD) (designed binder)
chain: B1 chain with I20A, A26I, R33K
B57: Z18759 (Z-ABD) (designed binder)
chain: B1 chain with V17I, E19K, I20V, A26H, R33K
B58: Z15862 (Z-ABD) (designed binder)
chain: B1 chain with E19I, I20A, R33K
B59: Z15934 (Z-ABD) (designed binder)
chain: B1 chain with E18T, E19V, I20A, R33K
B60: Z16603 (Z-ABD) (designed binder)
chain: B1 chain with E19A, I20A, A26Y, R33K, L43F

The binders below were run against T1, human IL-1R-I (assay: SPR screening; Z-ABD captured on anti-ABD, 100 nM hIL-1R-I injected).

Kd	Binder
2.4 nM	B1
3.4 nM	B2
3.5 nM	B3
4.3 nM	B4
3.7 nM	B5
3.3 nM	B6
6.3 nM	B7
2.6 nM	B8
5.2 nM	B9
6.4 nM	B10
3.3 nM	B11
3.7 nM	B12
3 nM	B13
3.5 nM	B14
3.8 nM	B15
3.5 nM	B16
3.7 nM	B17
3 nM	B18
4.2 nM	B19
4.8 nM	B20

Kd	Binder
3.2 nM	B21
3 nM	B22
4.8 nM	B23
3.1 nM	B24
8.9 nM	B25
2.1 nM	B26
1.9 nM	B27
6.9 nM	B28
3 nM	B29
3.1 nM	B30
2.6 nM	B31
2.8 nM	B32
11 nM	B33
13 nM	B34
3.3 nM	B35
6.5 nM	B36
9.6 nM	B37
3.1 nM	B38
13 nM	B39
3 nM	B40

Kd	Binder
2.9 nM	B41
2.5 nM	B42
2.7 nM	B43
4.9 nM	B44
2.7 nM	B45
3 nM	B46
5.7 nM	B47
3.8 nM	B48
4.5 nM	B49
4.1 nM	B50
9.6 nM	B51
2 nM	B52
2.6 nM	B53
2.7 nM	B54
12 nM	B55
5.5 nM	B56
3.4 nM	B57
13 nM	B58
9.4 nM	B59
9.1 nM	B60
